Data as given in the supplement of paper PMC5499739.
The full ranking holds about 16,000 sequences; the median of “Z-score” is about -0.37, and the highest 2% start at about 3.1. Some of the results follow.

system: RBM10 RRM1-ZnF-RRM2 (GST-tagged construct); assay: RNAcompete 7-mer binding Z-score; higher = stronger binding preference
Experimental: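 RNAcompete: 20 pmol GST-tagged RBM10 RNA-binding constructs were incubated with a designed RNA pool of about 241,000 sequences up to 41 nt (1.5 nmol) on glutathione beads for 30 min at 4 °C and washed. Bound RNAs were identified by microarray hybridisation. Each RNA 7-mer is scored by a one-sided Z-score of its enrichment, computed over probes that contain the 7-mer within longer pool sequences.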

Row | Sequence | RNAcompete 7-mer binding Z-score
1 | GGAGGAC | 1.98
2 | GGACGCU | 0.25
3 | CCACGCU | -0.468
4 | CUCCUAU | -0.956
5 | GAGACUC | -0.493
6 | GUUGUGC | 0.192
7 | GAGGUAC | 1.85
8 | AUGUGGG | 3.6
9 | GCCAAAU | -0.508
10 | GGAAGCC | 0.479
11 | ACGUAGA | 0.559
12 | CUAUGUA | -0.541
13 | GUAGUAA | 0.516
14 | CUUACUG | -0.653
15 | CUGAAAG | -0.195
16 | GGCAGGG | 2.76
17 | GCAGCAA | 0.0604
18 | UGGGAGG | 4.58
19 | UUAAUAC | -0.544
20 | UCGAAGC | -0.3
21 | UGCCAGA | -0.42
22 | AACUGCU | -0.777
23 | ACCUGGG | 0.457
24 | AAUGGUA | 2.49

Row | Sequence | RNAcompete 7-mer binding Z-score
25 | GCCAACC | -0.544
26 | GCGCCCU | -0.468
27 | UGCGACG | 0.13
28 | UGGAAAA | 1.15
29 | CCAAAGG | 0.454
30 | UAAAUGG | 1.36
31 | UCUCAAA | -0.712
32 | AAACUGG | 0.683
33 | GAGGUGC | 1.65
34 | GGUAACC | 1.03
35 | ACUCCGA | -0.581
36 | GGUUUAA | 0.589
37 | GACGUUA | -0.198
38 | CAUCUAG | -0.533
39 | UUCGCUA | -0.792
40 | CAGACCA | -0.388
41 | AGAGCUA | -0.526
42 | CCACAAG | -0.479
43 | AUAUUAU | -0.369
44 | CAAUAGU | 0.0277
45 | AAACAUU | -0.475
46 | ACUUCUC | -0.879
47 | UUCCCUA | -0.872
48 | UUUGAAG | -0.209

Row | Sequence | RNAcompete 7-mer binding Z-score
49 | GUUUUGC | -0.249
50 | AUUAACU | -0.65
51 | GCCUCUC | -0.857
52 | GCGAGAC | 0.279
53 | UUUGGCU | -0.566
54 | UGACCCU | -0.777
55 | AUCUGUG | -0.573
56 | UAUCAUA | -0.464
57 | AGUGUGU | 0.527
58 | CGGCAGC | 0.0277
59 | CCGAGAG | -0.286
60 | CAUAGCG | -0.409
61 | UAGACGG | 1.54
62 | UGAAUAA | -0.129
63 | UUAAAAC | -0.493
64 | CCAACUU | -0.927
65 | CCACUCA | -0.661
66 | CACAUGA | -0.369
67 | AGUUAUG | 0.119
68 | ACAUAAC | -0.457
69 | AAGAUAG | 0.789
70 | ACGUGAC | -0.114
71 | UCAGACC | -0.639
72 | CGCCCAC | -0.755

Row | Sequence | RNAcompete 7-mer binding Z-score
73 | AGUAGAU | 0.399
74 | CUUGACG | -0.683
75 | GUUGAUU | -0.282
76 | UCCAAUU | -0.755
77 | CUGCGUU | -0.61
78 | GUCUUAC | -0.679
79 | CCCAUCC | -0.624
80 | CGAAAGU | -0.271
81 | CGGUCAC | -0.209
82 | CGCAGCC | -0.683
83 | AUAUGGU | 2.06
84 | UCAAAAC | -0.358
85 | CUUGGCU | -0.69
86 | UUCUCCG | -0.708
87 | CAAACUA | -0.573
88 | CCUCGCU | -0.828
89 | CUCCGUA | -0.679
90 | GCGAUCA | 0.0568
91 | UGGUAAG | 1.73
92 | UGCCCAG | -0.708
93 | GUCGAUG | 0.162
94 | AGGAGGA | 2.22
95 | AGCCGUA | -0.471
96 | CGAGGAU | 1.1

Row | Sequence | RNAcompete 7-mer binding Z-score
97 | UAUGAAU | -0.0853
98 | CGAUGAC | -0.209
99 | UAGAGGC | 1.05
100 | AUUCUAU | -0.741
101 | CCUCGAG | -0.65
102 | CGACUCG | -0.617
103 | ACAGGAG | 2.7
104 | CCGAACA | -0.541
105 | CUUCGCC | -0.923
106 | UCUCGUA | -0.701
107 | CGUACCU | -0.77
108 | CCACACC | -0.497
109 | AGGGUCA | 1.51
110 | GCGUGCG | 0.782
111 | GUGAACC | -0.00877
112 | AUGCUGG | 0.585
113 | AGACCGU | -0.996
114 | CUGGUUG | 0.17
115 | UACCAUA | -0.391
116 | AAUUACC | -0.748
117 | CGGUUAU | 0.0823
118 | GUCCAGA | -0.275
119 | CGUGGCG | 1.36
120 | AGUUAUU | -0.588

Row | Sequence | RNAcompete 7-mer binding Z-score
121 | CUUAUAU | -0.854
122 | CCUGGGC | 0.29
123 | UGAUCGC | -0.708
124 | ACCGCGG | 0.548
125 | AUUAAGA | -0.103
126 | AGGGCGU | 1.3
127 | UAAGGAC | 1.51
128 | AGCUGCA | -0.351
129 | GACUAUA | -0.417
130 | UUAAGCA | -0.449
131 | AUGCCAC | -0.723
132 | ACUUUAG | -0.69
133 | GAUUAGU | 0.439
134 | UCCAGAA | -0.46
135 | GUAGGAU | 2.39
136 | UUAUCAC | -0.704
137 | UGUACAU | -0.293
138 | UUCCGGA | -0.479
139 | GUUUAUU | -0.537
140 | ACAAAGG | 2.29
141 | GCUCAAA | -0.442
142 | UAACUCA | -0.526
143 | CCGAUUU | -0.981
144 | CACAGGU | 0.676

Row | Sequence | RNAcompete 7-mer binding Z-score
145 | GGGGCCG | 1.24
146 | CAGCUCC | -0.857
147 | UGCUCAU | -0.821
148 | ACCCUAU | -0.854
149 | GACACGA | -0.0962
150 | GAUAUCG | 0.0204
151 | CUAGCAC | -0.694
152 | CAUGGUC | 0.0969
153 | AGUGUCG | 0.195
154 | UGCGGAA | 1.13
155 | AAGGGCG | 3.12
156 | GAUCGGU | 0.548
157 | CAGUCAG | 0.0131
158 | UUAUUCU | -0.854
159 | AUCCAAU | -0.508
160 | AAUUAAC | -0.439
161 | CAGUCCA | -0.49
162 | CGCUGAA | -0.548
163 | ACCUACU | -0.843
164 | GUCGAGA | 0.104
165 | UGAAGAC | -0.114
166 | UCUAGCU | -0.795
167 | AUUUGUG | -0.158
168 | CUCGGAA | -0.38

Row | Sequence | RNAcompete 7-mer binding Z-score
169 | AUGAAUG | 0.68
170 | GCACGAA | -0.184
171 | CUAAAAU | -0.697
172 | UGCGUGC | -0.373
173 | UAUCGAC | -0.766
174 | GCCUAUU | -0.901
175 | AACCUCG | -0.766
176 | CUUGAUC | -0.854
177 | UCUCACG | -0.613
178 | GGGUAAG | 3.97
179 | CCGAAAG | -0.526
180 | CUCGGAG | -0.122
181 | CGUCAAG | -0.249
182 | UGGAGCA | 2.21
183 | CACACAA | -0.49
184 | GCACCGU | -0.326
185 | CGGGUCC | 0.723
186 | UACUUGC | -0.734
187 | AAAUACG | -0.0561
188 | AUAUCUG | -0.573
189 | CUAUGAC | -0.679
190 | GCCAAUA | -0.468
191 | AUGCCUA | -0.785
192 | AGUGGGA | 4.3

Row | Sequence | RNAcompete 7-mer binding Z-score
193 | ACAGGUC | 0.283
194 | UCGCACU | -0.69
195 | CGGGGGC | 2.22
196 | UCAAUCC | -0.639
197 | CUAAGUG | -0.198
198 | GAACAGG | 3.18
199 | GUUCAGU | -0.0488
200 | GCACGUU | -0.337
201 | UCAGAUA | -0.209
202 | AAUAGCG | 0.202
203 | AAUACUC | -0.646
204 | CGCUAAU | -0.628
205 | CAAAUAG | -0.144
206 | GCGGGGC | 2.5
207 | AUAGAUA | 0.177
208 | CACUUAC | -0.712
209 | CGGAUUA | 0.37
210 | AUCCCCA | -0.653
211 | GUUACGC | -0.154
212 | GAUAGAA | 0.665
213 | AUGUAAU | -0.366
214 | CCGAGUA | -0.541
215 | GUCUAUG | -0.213
216 | UAUGGAA | 1.22

Row | Sequence | RNAcompete 7-mer binding Z-score
217 | UCGAUUC | -0.759
218 | CUCCUGG | -0.449
219 | GCCGACA | -0.355
220 | UGCUCCG | -0.683
221 | AUCGAUG | 0.177
222 | CGUUAGU | -0.402
223 | GCGGGAA | 2.5
224 | UGGAAGG | 3.68
225 | CUAGAGU | -0.446
226 | CAACUCU | -0.916
227 | GACGAUC | -0.428
228 | CCAUUCA | -0.777
229 | CCCCUAC | -0.748
230 | AGCAGCC | -0.526
231 | CGUAGAG | 0.636
232 | UUGCCUC | -0.89
233 | GUCUGAA | -0.562
234 | CACUUUA | -0.814
